The values below come from PubChem BioAssay AID1347073 (National Center for Advancing Translational Sciences (NCATS), 2019).

Structures are written as SMILES. About 200 (0.44%) of roughly 45,000 compounds were called active. Another 7% or so got no clear call; they are omitted. The call rests on the fitted dose curve; in most records, active means well fitted activation curve with a large enough effect; inconclusive means small, poorly fitted or top-dose-only effect; inactive means no such curve, though single readings can be large or run the other way. Some of the results follow.

A short description of the assay: qHTS of TDP-43 Inhibitors: NCGC Sytravon Library Screen. Further: 0% is about no effect; nearly all actives have a fitted effect of over 55% in size. As to conditions: yeast TDP-43 toxicity rescue, BacTiter-Glo growth, 24 h; at 46.1 µM (top of the series). The essentials:
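TDP-43-expressing yeast, pregrown in raffinose, seeded at OD600 0.02 in galactose medium with compound for 24 hr at 30 deg C. Growth read by BacTiter-Glo luminescence, so rescue of toxicity appears as activation.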
(In general: In qHTS, concentration-response curves come from the screen itself.)
For `CC(C)(C)C(=O)O[C@H]1CC[C@@]2(C)C(=CC(=O)C3C2CC[C@]2(C)C(=O)[C@H](O)CC32)C1` (stereo not given in full), the growth rescue (activation) is inactive: 23.1%.
In the case of `CCOc1ccc(N2C(=O)NC(=O)/C(=C\c3ccc(N4CCOCC4)cc3C)C2=O)cc1`, the growth rescue (activation) is inactive: -6.56%.
For the molecule `CCC(C)n1c(O)c(C=Nc2cccc(C(F)(F)F)c2)c(=O)[nH]c1=S` (stereo not given), the growth rescue (activation) was inactive: 12.7%.
On to `COc1ccc(-[n+]2c(-c3ccccc3)cc(-c3ccc(C)cc3)cc2-c2ccccc2)cc1`, for which the growth rescue (activation) is inactive: -5.24%.
As to `Cc1ccccc1-n1c(C)nc2ccccc2c1=O`, the growth rescue (activation) was inactive: 5.29%.
Consider `N#CC1=C(N)Oc2c(c(=O)oc3ccccc23)C1c1ccc(OC(=O)N2CCOCC2)cc1` (stereo not given), for which the growth rescue (activation) is inactive: 28.2%.
On to `CC(C)(C)C(=O)O[C@H]1CC[C@@]2(C)C(=CC(=O)C3C2CC[C@]2(C)C(=O)CCC32)C1` (stereo not given in full), for which the growth rescue (activation) is inactive: 8.04%.
Turning to `C[C@]12CCC3C(CC[C@H]4C[C@H](O)CC[C@]34C)C1[C@@H](O)[C@@H](O)[C@@H]2O` (stereo not given in full), the growth rescue (activation) was inactive: -0.474%.
On to `CCCCCCn1c(O)c(C=NC2CCN(Cc3ccccc3)CC2)c(=O)[nH]c1=O`, for which the growth rescue (activation) is inactive: 2.6%.
Regarding `NCCCN1CCN(c2ccccc2)CC1`, the growth rescue (activation) was inactive: 24.1%.
Under `Cc1nn(Cc2ccccc2Cl)c(C)c1C(=O)OCC(=O)N1CC(C)OC(C)C1` (stereo not given) stands inactive: 8.19%.
On to `Cc1ccsc1C(=O)C1CCCN(Cc2c(C)nn(C(C)C)c2C)C1` (stereo not given), for which the growth rescue (activation) was inactive: 3.88%.
The result for `CCOC(=O)C1=Nc2ccccc2/C1=C\c1c(O)n(C)c(=O)n(C)c1=O` reads inactive: -26.5%.
In the case of `O=C(CN1CCCC1=O)NCCc1ccccc1`, the growth rescue (activation) is inactive: -13.6%.
As to `O=CNc1ccc(OP(=O)(Oc2ccccc2)Oc2ccccc2)cc1`, the growth rescue (activation) was inactive: -2.25%.
As for `O=C(NCC(c1cccnc1)N1CCN(c2ccccc2F)CC1)Oc1ccccc1` (stereo not given), the growth rescue (activation) is inactive: 9.43%.
The result for `COc1ccc2[nH]cc(CCN=C(N)N)c2c1` reads inactive: 4.45%.
For `CC1CN(O)C2CCc3nonc3C12O` (stereo not given), the growth rescue (activation) is inactive: 1.68%.
Regarding `CCN1CCN(c2ccc([N+](=O)[O-])cc2C(=O)OC)CC1`, the growth rescue (activation) is inactive: -14.7%.
For the molecule `COc1ccc(CN2C(=O)NC(=O)/C(=C\c3ccco3)C2=O)cc1`, the growth rescue (activation) was inactive: -15.4%.
Consider `c1cncc(CNCCc2c[nH]c3ccccc23)c1`, for which the growth rescue (activation) was inactive: 10.2%.
Under `CC1=CC(=O)C2=C(C)CC(O)C3C(C)C(=O)OC3C12` (stereo not given) stands inactive: -22%; under `O=c1[nH]c(=O)n(CCC2=CCCCC2)c(O)c1C=NCCCn1ccnc1`, inactive: -8.75%.
In the case of `O=c1[nH]c(=S)n(-c2ccc(Cl)cc2)c(O)c1/C=N/N1CCOCC1`, the growth rescue (activation) was inactive: -6.83%.
For `C[C@]12CCC(=O)C=C1C=CC1C2CC[C@@]2(C)C1CC[C@@H]2O` (stereo not given in full), the growth rescue (activation) was inactive: 16.9%.
